Experimental data: PubChem BioAssay AID662 (National Center for Advancing Translational Sciences (NCATS), 2007)
About 1,800 (2.5%) of roughly 71,000 compounds were called active. Inconclusive means that the source gave no clear call. Such entries were picked first, then a sample of the others. Calls follow the shape of the dose curve; as a rule, active = well fitted activation curve with a large enough effect in the signal ratio, with a control signal flat (not every such curve was filed as active); inconclusive = small, poorly fitted or top-dose-only effect, or effect the other way, or a change in a side signal; inactive = flat fitted curve, though single readings scatter; the % refers to the signal ratio. Where the call is inconclusive, the potency comes from a doubtful curve fit.

Experiment: Cell signaling CRE-BLA (Fsk stim); as to activity change, negative = inhibition: % of control where 0% means no effect
Details: CHO CRE-bla reporter (cAMP response element driving beta-lactamase), forskolin EC10, beta-lactamase ratio; activity change, negative = inhibition: at 38.2 µM (top of the series) unless noted
Summary of the method: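 The 460nm/530nm emission ratio after CCF4 loading defined %Activity, from which AC50 values were obtained. CRE-bla CHO cells received compound dilution series together with an EC10 level of NKH 477 for 3 hours at 37 degrees Celsius.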
Potency is read from the fitted curve at half-maximal effect; tags tell the direction and shape of the fitted curve.

Structure (SMILES) | Potency | activity change, negative = inhibition
O=C(Nc1ccc(F)cc1)N(CCCN1CCOCC1)Cc1cc2cc3c(cc2[nH]c1=O)OCCO3 | inconclusive: 12.6 µM [rising, partial curve] | 
Cc1cc(C)c2c(n1)nn1c(NCCN3CCOCC3)cc(C)nc21 |  | inconclusive: 1.66%
O=C(Nc1ccc(N2CCOCC2)c(Cl)c1)C1CCCCC1 |  | inconclusive: 21.6%
COc1ccc(C)cc1NC(=O)CCC(=O)Nc1ccc2nc(N3CCN(C)CC3)cc(C)c2c1 | inconclusive: 10 µM [rising, partial curve] | 
CSCCC(NC(=O)c1cc(CC(C)C)oc1C)C(=O)O (stereo unspecified) |  | inconclusive: -9.95%
C=CCn1c(=N)c(C(=O)OCC)cc2c(=O)n3cc(C)ccc3nc21 |  | inactive: 8.13%
Cn1cccc1C(=O)N1CCC2(CC1)CCN(C(c1ccccc1)c1ccccc1)CC2 |  | inactive: 3.06%
COC(=O)c1sccc1NC(=O)c1ccc(Br)o1 | active: 3.98 µM | 
Cn1c(=S)c2[nH]c(SCc3cccnc3)nc2n(C)c1=O |  | inactive: 3.77% [at 7.6 µM]
CC(C)c1ccc(C2CC(=O)N3CN(Cc4ccco4)CSC3=C2C#N)cc1 (stereo unspecified) |  | inconclusive: 6.38%
CC(C)(C)n1ncc2c(=O)n(CC(=O)NCc3ccc(F)cc3)cnc21 | inconclusive: 12.6 µM [rising, single point] | 
O=C(NCc1ccccn1)C1COc2ccccc2O1 (stereo unspecified) | active: 10 µM | 
Cc1ccc(S(=O)(=O)Nc2ccccc2C(N)=O)cc1 |  | inactive: -9.79%
COc1ccc(NC(=O)c2cc3c(=O)n(C)c4ccccc4c3n2C)cc1OC | active: 3.98 µM | 
CCCCN1CC(O)=C(c2nc3ccccc3[nH]2)C1=N |  | inconclusive: -4.3%
CSCC[C@H](NC(=O)OC(C)(C)C)c1nnc(SCc2ccc(F)cc2)o1 |  | inconclusive: 8.66%
O=C(Nc1c2c(nn1-c1ccc(Cl)cc1)CS(=O)(=O)C2)c1ccc2c(c1)OCO2 |  | inactive: -11.3%
CC(=O)NCC(=O)OCC(=O)Nc1ccc(C(C)=O)cc1 |  | inactive: -4.16%
CC1CCN(CCCNC(=O)c2coc3nc4ccccc4nc23)CC1 | inconclusive: 15.8 µM [rising, partial curve] | 
CC(=O)C1=C(O)C(=O)N(CCc2c[nH]c3ccccc23)C1c1ccc(O)cc1 (stereo unspecified) |  | inconclusive: -14.4%
CC1=CC(C)(C)N2C(=O)C3(SCC(=O)N3c3ccc(O)cc3)c3cc(C)cc1c32 (stereo unspecified) |  | inconclusive: 29.4%

Structure (SMILES) | Potency | activity change, negative = inhibition
Cc1oc(-c2cccc(Cl)c2)nc1CN1CCCC(C(=O)NC(C)c2ccc3c(c2)OCCO3)C1 (stereo unspecified) |  | inconclusive: -15.7%
C=CCNc1nc2c(c(=O)[nH]c(=O)n2C)n1Cc1cccc(C)c1 | inconclusive: 10 µM [rising, partial curve] | 
COc1cc(-c2c(C#N)c(N)nc3c2CCCC3)cc(OC)c1OC | inconclusive: 12.6 µM [rising, partial curve] | 
O=C(c1ccccn1)N(Cc1cc2ccccc2[nH]c1=O)C1CCCCC1 | inconclusive: 12.6 µM [rising, partial curve] | 
O=S(=O)(Nc1cccc(C(F)(F)F)c1)c1cccnc1 |  | inconclusive: -4.89%
CC(C)CCNc1nc2c(c(=O)n(Cc3cccc(F)c3)c(=O)n2C)n1C | inconclusive: 5.01 µM [rising, single point] | 
Cc1csc(NC(=O)NC2(C(F)(F)F)Oc3ccccc3O2)n1 |  | inconclusive: -28.6%
CN(C)c1ncnc2ccc(-c3cccc(C#N)c3)cc12 | inconclusive: 10 µM [rising, partial curve] | 
Cc1ncc(COP(=O)(O)O)c(C)c1O |  | inactive: 8.09% [at 7.6 µM]
CCOC(=O)[C@H](N)/C=C(\C)CP(=O)(O)O | inconclusive: 31.6 µM [rising, single point] | 
Cc1coc(C)c1C(=O)CC1(O)C(=O)N(Cc2ccccc2)c2ccccc21 (stereo unspecified) | inconclusive: 5.01 µM [rising, single point] | 
Cc1cccc(OCC(=O)OCC(=O)c2c(N)n(C)c(=O)n(C)c2=O)c1 |  | inactive: 4.9%
CS(=O)(=O)N1CCC2(CCN(c3cccc(-c4ccccc4)c3)CC2)CC1 |  | inactive: -3.09%
O=c1c2ccccc2sn1-c1cc(S(=O)(=O)N2CCOCC2)ccc1N1CCOCC1 |  | inactive: 6.76%
CC(C)(C)c1nnc(NC(=O)C2CCN(c3ncccn3)CC2)s1 |  | inconclusive: 17.2%
O=C(c1nn(Cc2ccccc2)c(=O)c2ccccc12)N1CCN(c2ccccn2)CC1 |  | inconclusive: 24.7%
COc1ccccc1-c1nc(NCCNC(C)=O)c2ccccc2n1 |  | inconclusive: 12%
COc1cc(OC)cc(-c2cc3nc4c(c(N5CCN(c6cnccn6)CC5)n3n2)CCCC4)c1 | active: 1.58 µM | 
O=C1/C(=C/c2ccccc2)[C@@H](NC2CCCCC2)c2ccccc21 | inconclusive: 2.51 µM [falling, partial curve] | 
Cc1cc(C(=O)NCc2cccs2)c(C)o1 | inconclusive: 20 µM [falling, partial curve] | 
O=C(COc1ccc2c(c1)OCO2)NC12CC3CC(CC(C3)C1)C2 |  | inconclusive: 1.79%

Structure (SMILES) | Potency | activity change, negative = inhibition
OC[C@@H](O)CNc1ncnc2ccccc12 |  | inactive: 9.58% [at 7.6 µM]
CCOc1ccc(Cn2c(SCCCCC#N)nc3c2c(=O)n(C)c(=O)n3C)cc1OCC | active: 10 µM | 
Cc1ccc(CS(=O)(=O)CCC(=O)NCc2ccccn2)cc1 |  | inconclusive: 15%
CC1(C)CC(=O)C2=C(C1)NC(=O)CC2c1ccc(F)cc1 (stereo unspecified) |  | inconclusive: 2.94%
CCN(CC)S(=O)(=O)c1ccc(Cl)c(C(=O)Nc2nncs2)c1 |  | inconclusive: -4.51%
COC(=O)CC[C@@H](C)[C@@H]1CC[C@@H]2[C@@H]3CC[C@H]4C[C@@H](O)CC[C@@]4(C)[C@@H]3CC[C@]21C | inconclusive: 5.01 µM [rising, single point] | 
COC(=O)c1sc2nc3c(cc2c1N)COC(C)(C)C3 | inconclusive: 10 µM [rising, partial curve] | 
c1ccc(-c2nnc(CN3CCCc4ccccc43)o2)cc1 |  | inactive: -14.8%
Cc1nc(N2CCOCC2)c2nc(-c3ccccc3)n(CC(C)(C)CN(C)C)c2n1 |  | inactive: -7.25%
Cc1cccc(N(CC(=O)N2CCCC2)S(=O)(=O)c2ccccc2)c1C | inconclusive: 3.16 µM [falling, single point] | 
CNCCCCCCCCSc1nc(C(C)C)ccc1C(=O)c1cccs1 |  | inactive: 1.17%
N#Cc1ccc(NC(=O)Nc2ccc(Cl)cc2)cc1 |  | inconclusive: -22%
CCOC(=O)c1ccc(NC(=O)C23CCC(C)(C(=O)O2)C3(C)C)cc1 (stereo unspecified) |  | inconclusive: -9.96% [at 7.6 µM]
COc1ccc(N=c2oc3cc(O)ccc3cc2C(=O)NCC2CCCO2)cc1 (stereo unspecified) | inconclusive: 7.94 µM [rising, partial curve] | 
COc1ccc(N2CC(C)Cn3c2nc2c3c(=O)[nH]c(=O)n2C)cc1 (stereo unspecified) | inconclusive: 10 µM [rising, partial curve] | 
CN1CCN(c2ccc3nc(-c4ccc5nc(-c6ccc(O)cc6)[nH]c5c4)[nH]c3c2)CC1 |  | inconclusive: 4.45% [at 7.6 µM]
CCOc1ccc(/C=N/n2cnnc2)cc1 |  | inactive: 6.65%
Cc1nc(SCc2nc3ccccc3[nH]2)c2oc3ccccc3c2n1 | active: 0.0158 µM | 
O=C1c2ccccc2C(=O)N1CCc1nc2ccccc2c(=O)n1-c1ccccn1 | inconclusive: 10 µM [rising, partial curve] | 
CC(C)Oc1ccccc1C1CC(=O)Nc2cc3c(cc21)OCCO3 (stereo unspecified) | active: 6.31 µM | 
Cc1cc(=O)oc2cc(OCC(=O)NCCCN3CCOCC3)ccc12 |  | inactive: -1.95%

Structure (SMILES) | Potency | activity change, negative = inhibition
O=C(CN(Cc1ccco1)S(=O)(=O)c1cccs1)Nc1ccccc1C(F)(F)F |  | inactive: -12.5%
O=C(NCC(=O)N(CCc1ccccc1)C(C(=O)NC1CCCCC1)c1ccncc1)c1ccco1 (stereo unspecified) |  | inactive: -0.465%
Cc1cc(C)c(C#N)c(SCC(=O)Nc2ccccc2C(N)=O)n1 |  | inconclusive: 22.2%
CC(Nc1cc(=O)n(C)c(=O)[nH]1)c1ccccc1 (stereo unspecified) |  | inconclusive: 11.7%
Cn1c(=O)n(C)c2cc(/C=N/n3cnnc3)ccc21 |  | inactive: 15.9%
CC[C@]1(O)C[C@@H]2CN(CCc3c([nH]c4ccccc34)[C@](C(=O)OC)(c3cc4c(cc3OC)N(C)[C@H]3[C@](O)(C(=O)OC)[C@@H](C(=O)OC)[C@@]5(CC)C=CCN6CC[C@@]43[C@@H]65)C2)C1 | active: 0.251 µM | 
Cc1cccc(C)c1OCc1nnc(SCC(=O)Nc2nccs2)n1-c1ccccc1 |  | inconclusive: 14.4%
O=C1C(Cl)=C(NC2CCc3ccccc32)C(=O)c2ncccc21 (stereo unspecified) |  | inconclusive: -10.9%
CCOC(=O)c1ccc(Nc2nnc(C(C)(C)C)c(=O)[nH]2)cc1 | inconclusive: 1 µM [rising, full curve, poor fit] | 
CN=C(Nc1cc(C)nn1-c1ccccc1)c1ccccc1 | inconclusive: 15.8 µM [rising, single point] | 
CCCC(=O)Nc1ccc(C(=O)O)cc1NC(=O)CCC |  | inconclusive: 2.64%
COC(=O)c1ccccc1NC(=O)C1CC(=O)N(c2ccccc2)C1 (stereo unspecified) |  | inactive: 2.88%
Cc1onc(-c2ccccc2Cl)c1C(=O)Nc1cccc(-c2nc3ncccn3c2C)c1 | inconclusive: 10 µM [rising, partial curve] | 
Cc1cc(C)c2c(CC(=O)Nc3nccs3)coc2c1 |  | inconclusive: 2.32%
NC1=NC(S)C2N=CN=C2N1 (stereo unspecified) |  | inactive: -1.83%
COc1cccc2[nH]c3c(N4CCC(C(N)=O)CC4)ncnc3c12 |  | inconclusive: 27.5%
Cc1cccn2c(=O)c3cc(C(=O)N4CCCc5ccccc54)n(C)c3nc12 |  | inconclusive: 7.45%
COc1ccc(-c2ccc(SCC(=O)NCc3ccco3)nn2)cc1OC | inconclusive: 10 µM [rising, partial curve] | 
